In PubChem BioAssay AID588342 (National Center for Advancing Translational Sciences (NCATS), 2011):
The campaign covered roughly 360,000 compounds. About 25,000 (6.9%) were called active. Inconclusive results, whose numbers are uncertain, are shown with a selection of clear calls. Calls follow the shape of the dose curve; as a rule, active = well fitted inhibition curve with a large enough effect; inconclusive = small, poorly fitted or top-dose-only effect; inactive = flat fitted curve, though single readings scatter. Where the call is inconclusive, the potency comes from a doubtful curve fit.

target: Luciferin 4-monooxygenase (Photinus pyralis) (UniProt P08659); assay: qHTS profiling assay for firefly luciferase inhibitor/activator using purifed enzyme and Km concentrations of substrates (counterscreen for miR-21 project); conditions: purified FLuc, luminescence inhibition; activity change, negative = inhibition: at 57.5 µM (top of the series); also: nearly all actives have a fitted effect of over 55% in size;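 as to activity change, negative = inhibition: plate controls were vehicle for no effect and reference inhibitor for full effect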
Method in brief: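 Purified P. pyralis luciferase (10nM final) with 10uM D-luciferin and 10uM ATP (Km levels) in 50mM Tris acetate pH 7.5, 10mM Mg acetate, 0.01% Tween-20, 0.05% BSA; qHTS 6-point titration, ~60 µM downward; luminescence read.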
Potency is read from the fitted curve at half-maximal effect; tags tell the direction and shape of the fitted curve.

Chain of UniProt P08659 (P08659 whole entry, looked up): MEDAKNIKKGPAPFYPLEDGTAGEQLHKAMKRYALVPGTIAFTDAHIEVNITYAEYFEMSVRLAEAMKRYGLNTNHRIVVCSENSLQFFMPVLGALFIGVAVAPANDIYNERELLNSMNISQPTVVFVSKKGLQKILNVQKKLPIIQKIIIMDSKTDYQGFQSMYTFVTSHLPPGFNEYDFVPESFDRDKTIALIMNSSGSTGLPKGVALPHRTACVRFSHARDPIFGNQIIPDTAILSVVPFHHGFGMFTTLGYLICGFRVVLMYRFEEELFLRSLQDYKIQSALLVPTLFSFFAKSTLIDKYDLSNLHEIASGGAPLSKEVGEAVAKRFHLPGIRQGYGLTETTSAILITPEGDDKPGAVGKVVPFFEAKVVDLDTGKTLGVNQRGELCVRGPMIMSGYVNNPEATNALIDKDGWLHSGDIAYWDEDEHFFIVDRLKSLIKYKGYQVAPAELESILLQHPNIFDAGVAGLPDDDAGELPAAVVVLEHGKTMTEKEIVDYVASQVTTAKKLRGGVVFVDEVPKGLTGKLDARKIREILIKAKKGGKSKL

Row | SMILES | Potency | activity change, negative = inhibition
1 | CCN(CC(=O)Nc1ccc2c(c1)OCCO2)C(=O)/C=C/c1cccc(OC)c1OC | inconclusive: 16.9 µM [inhibitor, partial curve, poor fit] | 
2 | Fc1ccc(NC(=S)N2CCc3ccccc32)cc1 | inconclusive: 19 µM [inhibitor, partial curve, poor fit] | 
3 | O=C(NN=C1CCCC1)c1cc(Cl)cc(Cl)c1O | inconclusive: 26.9 µM [inhibitor, single point] | 
4 | Cc1cccc(N2CCN(C(=O)Cn3sc4nc(C)cc(C)c4c3=O)CC2C)c1 (stereo not given) | inconclusive: 8.49 µM [inhibitor, partial curve] | 
5 | O=C(O)CCCc1ccc2ccc3cccc4ccc1c2c34 | inconclusive: 26.9 µM [inhibitor, single point] | 
6 | Cc1ccc(CNC(=O)C2CC(=O)N(C3CCCCCC3)C2)cc1 (stereo not given) | inconclusive: 21.3 µM [inhibitor, partial curve, poor fit] | 
7 | COc1ccc(/C=N/NC(=O)c2ccn[nH]2)cc1CSc1ccccn1 | active: 10.7 µM | 
8 | Cn1nc(C(=O)Nc2cccc(C(=O)NC3CC3)c2)c2ccccc2c1=O | inconclusive: 37.9 µM [inhibitor, partial curve, poor fit] | 
9 | O=C(OCC1COc2ccccc2O1)c1ccccc1F (stereo not given) | active: 6.01 µM | 
10 | O=C(/C=C/c1ccccc1)NCCCNC(=O)/C=C/c1ccccc1 | inconclusive: 37.9 µM [inhibitor, partial curve, poor fit] | 
11 | O=C(O)c1nn(CCSc2ccccc2F)c(=O)c2ccccc12 | inconclusive: 30.1 µM [inhibitor, partial curve, poor fit] | 
12 | COc1ccc(-c2noc(-c3cccnc3)n2)cc1OC | active: 15.1 µM | 
13 | CC(C(=O)N(C)C1CCS(=O)(=O)C1)N1C(=O)/C(=C/c2ccc(F)cc2)SC1=S (stereo not given) | inconclusive: 37.9 µM [inhibitor, partial curve, poor fit] | 
14 | O=C1CCCC2=C1C(c1ccco1)Nc1ccc3ccccc3c12 (stereo not given) | inconclusive: 21.3 µM [inhibitor, single point] | 
15 | COc1ccccc1C(=O)NCCSCc1c(F)cccc1Cl | inconclusive: 37.9 µM [inhibitor, single point] | 
16 | O=c1[nH]cnc(O)c1C(c1ccc2c(c1)OCO2)c1c(O)nc[nH]c1=O |  | inactive: 4.88%
17 | COc1ccc(/C=N/NC(=O)c2ccc3c(c2)OCO3)cc1 | active: 5.36 µM | 
18 | O=C(CSc1n[nH]c(-c2ccccc2Cl)n1)NCCCc1ccccc1 | inconclusive: 33.8 µM [inhibitor, partial curve, poor fit] | 
19 | Cc1cccc(-c2cc3c(N=O)c4ccccc4c-3n[nH]2)c1 | active: 0.536 µM | 
20 | Cc1cccc(/C=C/c2nc3ccccc3c(=O)[nH]2)c1 | active: 1.07 µM | 
21 | COc1ccc(CNC(=S)N/N=C/c2ccc(OC)c(OC)c2)cc1 | inconclusive: 21.3 µM [inhibitor, single point] | 
22 | CCOc1ccc(C(=O)Nc2c(C(=O)Nc3ccccc3OC)oc3ccccc23)cc1OCC | inconclusive: 26.9 µM [inhibitor, partial curve, poor fit] | 
23 | O=[N+]([O-])c1cccc(C2CC(c3ccccc3)=NN2c2ccccc2)c1 (stereo not given) | inconclusive: 23.9 µM [inhibitor, single point] | 

Row | SMILES | Potency | activity change, negative = inhibition
24 | COC(=O)CSc1[nH]c2ccc(Br)cc2c1[N+](=O)[O-] | inconclusive: 37.9 µM [inhibitor, partial curve, poor fit] | 
25 | C/C=C(/C(=C/C)c1ccc(O)cc1)c1ccc(O)cc1 | inconclusive: 26.9 µM [inhibitor, partial curve, poor fit] | 
26 | COc1ccc(NC(=O)CCC2CCCCC2)cc1S(=O)(=O)N1CCCCC1 |  | inactive: -0.887%
27 | Cc1ccc(-n2ncc3c(NCC4CCCO4)ncnc32)c(C)c1 (stereo not given) | inconclusive: 26.9 µM [inhibitor, partial curve, poor fit] | 
28 | COC(=O)c1ccc(NN=Nc2ccc(C)cc2)cc1 | active: 6.75 µM | 
29 | COc1ccc(N2CCN(C(=O)CSc3nc(-c4ccc(C(C)C)cc4)no3)CC2)cc1 | inconclusive: 1.69 µM [inhibitor, partial curve, poor fit] | 
30 | CCOc1ncccc1C(=O)OCC(=O)c1ccccc1 | inconclusive: 21.3 µM [inhibitor, partial curve] | 
31 | COc1ccccc1N/N=C/c1ccc2c(c1)OCO2 | active: 9.53 µM | 
32 | Cn1/c(=N/N=C/c2ccc([N+](=O)[O-])cc2)sc2ccccc21 | active: 2.13 µM | 
33 | CC1CCN(S(=O)(=O)N2CCC(C(=O)NCc3ccccc3Cl)CC2)CC1 |  | inactive: -4.05%
34 | COc1ccc(OC)c(-c2csc(NC(=O)C3=NNC(=O)CC3)n2)c1 | inconclusive: 33.8 µM [inhibitor, partial curve, poor fit] | 
35 | O=C(Cc1nnc(NC(=O)c2ccccc2)s1)N/N=C\c1ccc(O)c(O)c1 | inconclusive: 13.5 µM [inhibitor, partial curve, poor fit] | 
36 | CC(=O)c1cc2c(cc1N(C(=O)Cn1nnc3ccccc31)C(C(=O)NCCC(C)C)c1cccnc1)OCO2 (stereo not given) |  | inactive: 1.56%
37 | COc1ccc(CNC(=O)Cc2c(C)c3cc4c(C)coc4cc3oc2=O)cc1OC |  | inactive: -6.38%
38 | Cc1ccc(Nc2ncnc(-n3cccc3)n2)cc1Cl | active: 2.69 µM | 
39 | CCS(=O)(=O)c1ncc(Cl)c(C(=O)N2CCN(c3ccc(OC)cc3)CC2)n1 |  | inactive: -5.74%
40 | Cc1cccc(-c2cc(C(=O)Nc3sc(C)c(C)c3C(N)=O)c3ccccc3n2)c1 | inconclusive: 26.9 µM [inhibitor, partial curve] | 
41 | Cc1ccc(C(C)C)c(OCc2ccc(C(=O)N/N=C/c3cccc(O)c3O)cc2)c1 | inconclusive: 26.9 µM [inhibitor, single point] | 
42 | CC(C)c1ccc(-c2nn[nH]n2)cc1 | active: 6.01 µM | 
43 | CCn1c(NC(=O)c2cccs2)nc2ccccc21 | inconclusive: 21.3 µM [inhibitor, single point] | 
44 | CC(C)=CC(=O)Nc1ccc(OCc2ccccc2)cc1 | active: 13.5 µM | 
45 | O=C(Nc1cccnc1)c1cc2c(s1)-c1ccccc1OC2 | inconclusive: 12 µM [inhibitor, partial curve] | 
